According to article PMC4336329 (PLoS ONE, 2015):
Among all 310,000 compounds or so, about 14,000 (4.5%) showed an effect of 50% or more. The effect is printed as a negative number. The list shows a part of the results.

Molecular target: human ether-à-go-go-related gene (hERG) potassium channel (human, UniProt Q12809)
Test: primary screen, population patch clamp on CHO cells stably expressing hERG
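Note: peak tail current of the secondary pulse compared with the same well before compound.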

human ether-à-go-go-related gene (hERG) potassium channel, sequence (Q12809 whole entry, looked up): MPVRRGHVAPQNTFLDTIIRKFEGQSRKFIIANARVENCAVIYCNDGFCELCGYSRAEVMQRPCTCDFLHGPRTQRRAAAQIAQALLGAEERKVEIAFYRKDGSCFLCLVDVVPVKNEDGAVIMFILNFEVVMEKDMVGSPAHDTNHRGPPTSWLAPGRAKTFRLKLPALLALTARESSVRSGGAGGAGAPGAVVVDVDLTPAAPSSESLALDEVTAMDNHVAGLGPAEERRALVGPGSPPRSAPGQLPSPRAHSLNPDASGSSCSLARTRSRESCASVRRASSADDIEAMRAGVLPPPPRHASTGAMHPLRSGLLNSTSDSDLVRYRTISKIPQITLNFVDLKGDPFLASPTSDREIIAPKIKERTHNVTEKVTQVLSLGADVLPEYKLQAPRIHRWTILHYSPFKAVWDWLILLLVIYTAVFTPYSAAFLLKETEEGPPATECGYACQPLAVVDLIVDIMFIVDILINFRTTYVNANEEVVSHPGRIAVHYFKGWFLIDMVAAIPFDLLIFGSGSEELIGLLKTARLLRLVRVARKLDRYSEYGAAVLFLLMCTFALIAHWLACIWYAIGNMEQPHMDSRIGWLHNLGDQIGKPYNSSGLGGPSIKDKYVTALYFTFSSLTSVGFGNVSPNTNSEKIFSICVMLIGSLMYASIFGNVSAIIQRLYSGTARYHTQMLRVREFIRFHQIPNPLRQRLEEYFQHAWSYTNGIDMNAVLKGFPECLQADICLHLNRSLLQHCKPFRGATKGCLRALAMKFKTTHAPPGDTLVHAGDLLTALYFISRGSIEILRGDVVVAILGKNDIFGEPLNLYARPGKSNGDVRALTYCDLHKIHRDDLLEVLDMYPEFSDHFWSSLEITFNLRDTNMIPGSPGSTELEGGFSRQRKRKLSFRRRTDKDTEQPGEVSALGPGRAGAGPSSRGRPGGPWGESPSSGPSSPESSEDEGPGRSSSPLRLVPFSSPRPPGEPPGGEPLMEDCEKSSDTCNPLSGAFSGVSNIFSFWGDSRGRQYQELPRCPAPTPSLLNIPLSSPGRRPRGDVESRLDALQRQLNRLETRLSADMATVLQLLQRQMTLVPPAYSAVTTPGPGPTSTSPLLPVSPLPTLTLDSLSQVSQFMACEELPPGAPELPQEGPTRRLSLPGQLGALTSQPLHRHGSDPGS

| SMILES | hERG current change (%, negative = inhibition) at 10uM [%] |
| --- | --- |
| CC(C)NC(=S)N/N=C/c1c[nH]c2ccccc12 | 2.04 |
| CCOC(=O)C1CCN(C(=O)CCNC(=O)c2cc(OC)c(OC)c(OC)c2)CC1 | 10.9 |
| Oc1ccc(/C(Cc2ccc3ccccc3n2)=N\Nc2ccccc2)c(O)c1 | 42 |
| O=C(Nc1ccc2nc3n(c(=O)c2c1)CCCCC3)c1ccccn1 | -21.2 |
| Cc1cccc(NC(=O)Nc2ccc(OCc3ccccc3)cc2)n1 | 21.3 |
| COc1ccc(S(=O)(=O)N2CCCC(C(=O)NCC3CCCO3)C2)cc1Cl (stereo not drawn) | 0.933 |
| Nc1nonc1-n1nnc(C(=O)N/N=C/c2ccc(F)cc2)c1-c1ccc2c(c1)OCO2 | 6.64 |
| Cc1ccc(NCc2nnc(SCC(=O)c3ccccc3)n2Cc2ccco2)c(C)c1 | -7.53 |
| Cc1c(Nc2nc(C(F)(F)F)nc3ccccc23)c(=O)n(-c2ccccc2)n1C | -1.37 |
| Cc1ccc2nc(Cl)c(/C=N/Nc3ccc(C(=O)O)cc3)cc2c1 | 8.21 |
| O=C(CSc1nc2c(c(=O)[nH]1)CN(Cc1ccc(F)cc1)CC2)Nc1ccc(F)cc1 | -22.6 |
| COc1ccc(C(=O)Nn2c(C)nc3ccccc3c2=O)cc1OC | 21.7 |
| CCC(C)NC(=O)c1ccc(CN2CCc3ccccc3C2)cc1 (stereo not drawn) | 0.0718 |
| Cc1nn(Cc2ccc(C(=O)O)o2)c(C)c1[N+](=O)[O-] | 25.5 |
| O=C(NCC1CCCO1)/C(=C/c1ccccc1F)NC(=O)c1ccccc1 (stereo not drawn) | -6.18 |
| CCOC(=O)CNC(=O)CSc1nnc(-c2ccc(OC)cc2)n1CC | 10.5 |
| Cn1nnnc1SCC(=O)N1CCN(c2ccccc2)CC1 | 12.4 |
| O=C(Nc1ccccc1C(F)(F)F)c1ccc2nccnc2c1 | 12.9 |
| Cc1cccc(NC(=O)COC(=O)CNC(=O)C2CCCCC2)c1 | -3.71 |
| c1coc(CNc2ncnc3c2oc2ccccc23)c1 | -22.1 |
| Cc1cc(C)nc(NS(=O)(=O)c2ccc(N=Cc3c(C)[nH]n(-c4ccccc4)c3=O)cc2)n1 | 19 |

| SMILES | hERG current change (%, negative = inhibition) at 10uM [%] |
| --- | --- |
| S=C(NCCc1ccccc1)N1CCN(C23CC4CC(CC(C4)C2)C3)CC1 | -75.2 |
| S=C(Nc1cccc(Cl)c1)N(CCCN1CCCC1)Cc1cccn1Cc1ccc(Cl)cc1 | -22.7 |
| Cc1ccc(-n2c(CCc3ccccc3)nnc2SCC(=O)NCc2ccccc2)cc1C | 5.97 |
| COc1cc(OC)cc(C(=O)NC(C(=O)O)C23CC4CC(CC(C4)C2)C3)c1 (stereo not drawn) | 14.3 |
| C/C(=N\N1CCN(Cc2ccccc2)CC1)c1ccco1 | -1.45 |
| Cc1ccc(NC(=O)CCCOc2ccccc2)cc1S(=O)(=O)N1CCOCC1 | -23.8 |
| COCCNC(=O)C1CCC(CNS(=O)(=O)c2ccc(F)cc2)CC1 (stereo not drawn) | 17.3 |
| COc1ccccc1NC(=S)N1CCC(C(=O)c2ccc(F)cc2)CC1 | -22.7 |
| O=C(C1CCCCC1)N1CCCC(c2nc(-c3ccc(F)cc3)no2)C1 (stereo not drawn) | 9.78 |
| CCCCCn1c(=O)c(C(=O)NCCc2ccccc2)c(O)c2ccccc21 | 24.9 |
| O=C(Nc1nc2ccc([N+](=O)[O-])cc2s1)c1c(F)cccc1F | -14.5 |
| C#CC[N+]1(CC#Cc2cccc(C)c2)CCCCC1.[Br-] | 5.18 |
| Cc1cccn2c(=O)c(C(=O)NC3CC(C)CC(C)(C)C3)c(O)nc12 (stereo not drawn) | -29.3 |
| O=C(Cc1ccccc1)NNC(=S)NC(=O)c1cccs1 | 21.7 |
| O=C(Cc1ccc(Cl)cc1)Nc1ccc(NC(=O)c2cccs2)cc1 | -9.9 |
| CC1(C)CC(=O)C2=C(C1)Nc1ccccc1S2 | 13.4 |
| CCOc1ccc(NC(=O)N2CCC(NC(=O)C(Cc3cccc(F)c3)NC(C)=O)CC2)cc1 (stereo not drawn) | 23.8 |
| COc1cc2c(cc1OC)CN(c1ccc(-c3ccccc3OC)nn1)CC2 | 0.648 |
| COc1ccc(N2CCN(C(CNC(=O)C(=O)NCC3CCCO3)c3ccco3)CC2)cc1 (stereo not drawn) | -2.53 |
| CCn1cc(C(=O)NCCCN2CCCC(C)C2)c(=O)c2cc(S(=O)(=O)N3CCc4ccccc4C3)ccc21 (stereo not drawn) | -75.7 |
| O=C(CN1CCC(n2nnc3cc(F)ccc32)CC1)NCCc1nc2ccccc2[nH]1 | -31.6 |
